The list shows a part of the results.
System: T1, Caupolican (Caup) homeodomain DNA-binding domain
T1 sequence: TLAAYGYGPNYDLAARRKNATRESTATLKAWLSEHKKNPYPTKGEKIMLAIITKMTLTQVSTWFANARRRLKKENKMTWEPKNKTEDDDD
Test: PBM E-score (8-mer, recovered from the published 9-mer minima) (E-score (dimensionless, -0.5 to 0.5)); Drosophila protein; higher = stronger relative binding preference, active = 0.31 or more
Outline: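 Caup's homeodomain DNA-binding domain (residues 214-303) was produced by in vitro transcription and translation and applied at 100 nM to custom-designed protein binding microarrays. Each value is an enrichment score giving relative binding preference for a short DNA word; higher means stronger. Published 9-mer scores were the minimum of their two constituent 8-mer scores, and the 8-mer values were recovered from those minima. A cutoff of 0.31 marks candidate binding sequences.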

Row | Sequence | PBM E-score
1 | ACGTCAGT | inactive: -0.0491
2 | CAATCGGA | inactive: 0.0187
3 | CACGTCGG | inactive: -0.0125
4 | AGTGTCGG | inactive: 0.0481
5 | CCTGTACG | inactive: 0.0896
6 | AATCGTGA | inactive: 0.102
7 | CCTATCCG | inactive: -0.134
8 | CGCGTTAA | inactive: -0.0956
9 | CGGCGACG | inactive: -0.177
10 | CACCCCTG | inactive: -0.045
11 | ACCGTAGG | inactive: -0.128
12 | AATCGTCA | inactive: 0.0937
13 | GCCCGCGC | inactive: -0.231
14 | CAGGCAGG | inactive: -0.0476
15 | GCTAATAA | inactive: 0.133
16 | TACATACA | active: 0.415
17 | GATGATAC | inactive: 0.0554
18 | ATAAACGG | inactive: 0.0368
19 | AGAAAAGG | inactive: 0.00439
20 | AAAGGTGA | inactive: -0.0106
21 | GGATTGCA | inactive: -0.0443

Row | Sequence | PBM E-score
22 | GGCGAGCA | inactive: -0.131
23 | CCGGTGAG | inactive: -0.188
24 | GTCTAAAA | inactive: -0.0624
25 | CGCGGTTA | inactive: -0.0649
26 | ACGTTTTG | inactive: 0.0428
27 | AGTATGAT | inactive: 0.17
28 | TCATCGAA | inactive: -0.0374
29 | CCGATCGC | inactive: -0.0771
30 | CGAACACA | inactive: 0.167
31 | AGAGAATC | inactive: -0.0669
32 | GGGAGATA | inactive: -0.114
33 | CTAAGTAA | inactive: 0.0102
34 | ACGTAACG | inactive: 0.0522
35 | CCTGGCCC | inactive: -0.251
36 | CTCAATCA | inactive: 0.0591
37 | AGGTTGCC | inactive: -0.0843
38 | AATCTGCT | inactive: 0.0174
39 | AGGCACCT | inactive: -0.165
40 | CTCCGTCA | inactive: -0.114
41 | AGTGGGTC | inactive: -0.178
42 | AGCGCAAG | inactive: -0.181

Row | Sequence | PBM E-score
43 | CGCTGCGA | inactive: -0.0621
44 | CTTTCCCA | inactive: -0.162
45 | ACGCTCTA | inactive: -0.0243
46 | AAAATGAT | inactive: 0.177
47 | TAATGATA | inactive: 0.091
48 | GGTGCCAC | inactive: -0.202
49 | AAAGTTGG | inactive: 0.0235
50 | CCGTTACG | inactive: -0.0459
51 | GACGAGTC | inactive: -0.057
52 | AGCGTAAC | inactive: 0.134
53 | GGAAGACC | inactive: -0.172
54 | AACTGATT | inactive: 0.159
55 | AGCCAACT | inactive: -0.103
56 | GAGCGTAA | inactive: -0.0201
57 | ACGCCGAT | ≥ -0.0491
58 | ATTAGAAA | inactive: 0.043
59 | CACCGGGA | inactive: -0.192
60 | AGTATACT | inactive: 0.163
61 | CACATAAG | inactive: 0.0233

Reference: the supplement of paper PMC3724861
